# Test results published in PubChem BioAssay AID588342 (National Center for Advancing Translational Sciences (NCATS), 2011).
# Values joined by “and” are separate entries in the source; they are usually repeats but may differ in a detail not shown here. Equal values may be shown once. Out of some 360,000 compounds screened, about 25,000 (6.9%) were called active. The shares of active, inactive and inconclusive entries below differ from those in the screen. Calls follow the shape of the dose curve; as a rule, active = well fitted inhibition curve with a large enough effect; inconclusive = small, poorly fitted or top-dose-only effect; inactive = flat fitted curve, though single readings scatter. Where the call is inconclusive, the potency comes from a doubtful curve fit.
# Biological target: Luciferin 4-monooxygenase (Photinus pyralis) (UniProt P08659)
# UniProt P08659, sequence (P08659 whole entry, looked up): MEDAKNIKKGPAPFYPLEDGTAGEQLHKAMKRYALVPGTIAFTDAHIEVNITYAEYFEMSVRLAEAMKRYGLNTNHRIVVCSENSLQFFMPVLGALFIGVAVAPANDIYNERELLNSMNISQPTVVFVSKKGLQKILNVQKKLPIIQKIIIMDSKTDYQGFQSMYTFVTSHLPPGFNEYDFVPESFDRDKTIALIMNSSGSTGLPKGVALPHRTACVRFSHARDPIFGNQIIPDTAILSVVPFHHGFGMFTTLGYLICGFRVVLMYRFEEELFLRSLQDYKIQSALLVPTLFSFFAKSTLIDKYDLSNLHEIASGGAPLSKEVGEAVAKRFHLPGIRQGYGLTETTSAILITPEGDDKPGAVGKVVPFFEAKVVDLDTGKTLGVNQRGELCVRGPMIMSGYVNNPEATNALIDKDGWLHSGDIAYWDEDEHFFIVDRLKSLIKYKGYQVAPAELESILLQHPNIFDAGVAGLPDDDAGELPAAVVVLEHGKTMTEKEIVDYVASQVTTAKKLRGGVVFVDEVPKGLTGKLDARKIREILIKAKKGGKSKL
# Experiment: qHTS profiling assay for firefly luciferase inhibitor/activator using purifed enzyme and Km concentrations of substrates (counterscreen for miR-21 project); also: nearly all actives have a fitted effect of over 55% in size;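 as to activity change, negative = inhibition: plate controls were vehicle for no effect and reference inhibitor for full effect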
# Settings: purified FLuc, luminescence inhibition; series mostly up to 57.5 µM; activity change, negative = inhibition: at the top concentration
# In short: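 Purified P. pyralis luciferase (10nM final) with 10uM D-luciferin and 10uM ATP (Km levels) in 50mM Tris acetate pH 7.5, 10mM Mg acetate, 0.01% Tween-20, 0.05% BSA; qHTS 6-point titration, ~60 µM downward; luminescence read.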
# Potency is read from the fitted curve at half-maximal effect; tags tell the direction and shape of the fitted curve.
Compound,Potency,"activity change, negative = inhibition"
O=C(OCc1ccc(Cl)c(Cl)c1)c1cccnc1Cl,"inconclusive: 23.9 µM [inhibitor, partial curve, poor fit]",
CC(/C=N/NC(=O)c1nnn(-c2nonc2N)c1C(C)C)=C\c1ccccc1,active: 1.51 µM,
Cc1cc(NC(=S)NC(=O)CC(C)C)ccc1Br,"inconclusive: 26.9 µM [inhibitor, single point]",
CCN1CCN(Cc2ccc(NC(=O)c3ccc(C)c(NC(=O)c4nccn4C)c3)cc2C(F)(F)F)CC1,"inconclusive: 42.6 µM [inhibitor, partial curve, poor fit]",
CNS(=O)(=O)c1cccc(C(=O)OCC(=O)c2ccc3c(c2)OCCO3)c1,active: 0.379 µM,
COCCCNC(=S)Nc1cc2oc3ccccc3c2cc1OC,"inconclusive: 42.6 µM [inhibitor, partial curve, poor fit]",
O=C(C1=COCCO1)N(Cc1nnc(-c2ccccc2Cl)o1)C1CC1,"inconclusive: 26.9 µM [inhibitor, partial curve, poor fit]",
CC(CNS(=O)(=O)c1ccccc1)(c1ccccc1)N1CCCCC1 (configuration not stated),,inactive: 0.54%
COc1ccc(-c2noc(-c3ccccc3C(=O)NCc3ccco3)n2)cc1OC,active: 19 µM,
NS(=O)(=O)c1ccc(Nc2nc3ccccc3nc2NS(=O)(=O)c2cccc([N+](=O)[O-])c2)cc1,"inconclusive: 26.9 µM [inhibitor, single point]",
CCOc1cccc(C(=O)NC(=S)Nc2cccc(NC(=O)c3ccccc3Cl)c2)c1,"inconclusive: 21.3 µM [inhibitor, single point]",
COc1ccc(Cl)cc1-n1c(CCC(=O)O)ccc1-c1ccc(C)cc1,"inconclusive: 10.7 µM [inhibitor, partial curve]",
COc1ccc(C(=O)NC=C2C(=O)OC(C)(C)OC2=O)cc1,,inactive: -7.76%
O=C(NCC(O)CO)c1ccc2[nH]c3ccccc3c2c1 (configuration not stated),"inconclusive: 37.9 µM [inhibitor, partial curve, poor fit]",
CCOC(=O)C(CC)Sc1nnc(COc2ccc(C)cc2)n1-c1ccccc1 (configuration not stated),,inactive: -1.29%
COc1cc(/C=N/NC(=O)c2ccc(N3CCCC3=O)cc2)ccc1O,"inconclusive: 8.49 µM [inhibitor, partial curve]",
CCOC(=O)Cc1csc(N/N=C/c2ccc(Cl)cc2)n1,"inconclusive: 8.49 µM [inhibitor, partial curve]",
O=C(CSc1n[nH]c(-c2cccnc2)n1)OC1CCCCC1,,inactive: -2.14%
Oc1csc(Cc2nc(-c3ccc(-c4ccccc4)cc3)cs2)n1,"inconclusive: 3.38 µM [inhibitor, partial curve]",
Oc1ccc(/C=N/NC(=S)Nc2cccnc2)cc1O,"inconclusive: 10.7 µM [inhibitor, single point]",
O=[N+]([O-])c1ccccc1/C=N/NC1=NS(=O)(=O)c2ccccc21,"inconclusive: 16.9 µM [inhibitor, partial curve]",
CNc1ccccc1C(=O)OCC(=O)Nc1ccc2c(c1)OCO2,"inconclusive: 19 µM [inhibitor, partial curve, poor fit]",
COc1ccc(NC(=O)c2cccc3ccccc23)cc1,"inconclusive: 30.1 µM [inhibitor, single point]",
Cc1cc(=O)[nH]c(SCc2cccc3cccnc23)n1,"inconclusive: 26.9 µM [inhibitor, partial curve, poor fit]",

Compound,Potency,"activity change, negative = inhibition"
O=C(Nc1cn(-c2ccccc2)nc1-c1cccs1)c1ccco1,active: 16.9 µM,
C/C(=N\Nc1nc2ccccc2s1)c1ccc2c(c1)OCO2,active: 9.53 µM,
CC(=O)N1CCN(C(=S)c2ccc(-c3ccc(Cl)cc3)o2)CC1,"inconclusive: 13.5 µM [inhibitor, partial curve]",
COc1cc(-c2nc3sccn3c2Nc2cccc(C)c2)ccc1O,"inconclusive: 23.9 µM [inhibitor, partial curve, poor fit]",
Cc1nc(-c2ccc(Cl)cc2)sc1CCNC(=O)c1ccco1,"inconclusive: 23.9 µM [inhibitor, partial curve, poor fit]",
Cc1ccc(-n2c(=O)c3c4c(sc3n(Cc3ccccc3F)c2=O)CCC4)cc1C,,inactive: 2.06%
Cc1ccccc1NC(=O)CCc1c(C)nn(-c2ccc(N3CCCCC3)nn2)c1C,"inconclusive: 37.9 µM [inhibitor, partial curve, poor fit] and inconclusive: 26.9 µM [inhibitor, partial curve]",
Oc1ccccc1-c1nc(/C=C/c2ccccc2Cl)no1,active: 0.19 µM,
O=C(CSc1nnc(-c2ccco2)n1Cc1ccccc1)OC1CCCCC1,active: 9.53 µM,
Cc1cccc(NC(=O)/C(C#N)=C\c2cn(CC(=O)O)c3ccccc23)c1,"inconclusive: 30.1 µM [inhibitor, single point]",
O=S(=O)(/C(=C/c1ccc(C(F)(F)F)cc1)c1nc2ccccc2[nH]1)c1ccccc1,,inactive: 4.49%
CCCS(=O)(=O)N1CCCC(C(=O)Nc2ccc3c(c2)CCC3)C1 (configuration not stated),"inconclusive: 26.9 µM [inhibitor, single point]",
CCOc1ccc(NC(=O)CCC(=O)Nc2nnc(CC)s2)cc1,,inactive: -0.884%
COc1ccccc1CNC(=O)C(=O)Nc1ccc(C(=O)N2CCC(C)CC2)cc1,"inconclusive: 37.9 µM [inhibitor, partial curve, poor fit]",
O=C(NC(=S)N1CCCc2ccccc21)c1ccccc1,"inconclusive: 23.9 µM [inhibitor, single point]",
CC(C)(C)OC(=O)NCCC(=O)N/N=C/c1ccc2ncccc2c1,"inconclusive: 21.3 µM [inhibitor, single point]",
COc1c(Cl)cc(Cl)cc1/C=C(\C#N)c1nc2ccccc2[nH]1,,inactive: 2.13%
COc1ccc(Cc2[nH]n3c(=O)c(Cl)c(C)nc3c2-c2ccccc2)cc1,"inconclusive: 26.9 µM [inhibitor, partial curve, poor fit]",
COc1ccc(C(=O)Nc2ccc(-c3cc4ccccc4oc3=O)c(C)c2)cc1Br,"inconclusive: 4.78 µM [inhibitor, partial curve, poor fit]",
COc1ccc(-c2csc(NC(=O)CSCC(=O)Nc3cc(C)on3)n2)cc1,"inconclusive: 37.9 µM [inhibitor, partial curve, poor fit]",
CCOC(=O)C(=Cc1ccc(OCc2ccc([N+](=O)[O-])cc2)c(OC)c1)C(=O)OCC,active: 15.1 µM,
O=C(CCCCCNC(=O)N1CCn2c1nc1ccccc12)NCc1ccc(F)cc1,"inconclusive: 37.9 µM [inhibitor, partial curve, poor fit]",
Fc1ccc(-n2cc(CNCCc3ccncc3)c(-c3ccccc3Cl)n2)cc1,"inconclusive: 30.1 µM [inhibitor, partial curve, poor fit]",
O=C(CN(C(=O)CCC(=O)Nc1nccs1)c1cccc(C(F)(F)F)c1)NCC1CCCO1 (configuration not stated),,inactive: -0.583%

Compound,Potency,"activity change, negative = inhibition"
Cc1ccc(C)c(NC(=O)C2CCCN(c3cnccn3)C2)c1 (configuration not stated),,inactive: 1.19%
CC(C)/C(=N/Nc1ccccc1[N+](=O)[O-])c1ccccc1,"inconclusive: 23.9 µM [inhibitor, single point]",
Cn1c(SCc2nn[nH]n2)nc2c1c(=O)n(Cc1ccccc1Cl)c(=O)n2C,,inactive: 0.41%
O=C(CCCc1ccccc1)Nc1cccc([N+](=O)[O-])c1,"inconclusive: 30.1 µM [inhibitor, partial curve]",
Cc1c2cnn(-c3ccccc3)c(=O)c2c(C)n1CC(=O)NCc1ccccc1Br,,inactive: 2.86%
Fc1ccc(-c2nnc3ccc(N4CCc5ccccc5C4)nn23)cc1,,inactive: -0.0117%
C=CCNC(=S)NN=C1CCC(c2ccccc2)CC1 (configuration not stated),"inconclusive: 30.1 µM [inhibitor, partial curve, poor fit]",
O=C(Nc1ccccc1)Nc1nncs1,"inconclusive: 21.3 µM [inhibitor, partial curve, poor fit]",
O=C(CCCN1C(=O)/C(=C/c2ccc(F)cc2)SC1=S)NCCCn1ccnc1,"inconclusive: 23.9 µM [inhibitor, partial curve, poor fit]",
C=CCNc1nc(-c2cc3ccccc3o2)cs1,active: 0.338 µM,
O=C(N/N=C/c1ccccn1)c1ccccc1,active: 10.7 µM,
COc1ccc(C(=O)Cn2cnc3ccccc3c2=O)cc1OC,,inactive: -4.56%
CN(C)c1ccc(-c2n[nH]c(=S)n2-c2ccccc2)cc1,,inactive: -8.45%
CCCCOc1ccc(C(=O)NCC2(N3CCN(C)CC3)CCCCC2)cc1,,inactive: 0.167%
CCS(=O)(=O)N1CCc2cc(C(=O)Nc3ccc(C)c(Cl)c3)ccc21,,inactive: 5.33%
Cc1ccc(C(=O)COC(=O)c2ccc(O)cc2)cc1,active: 10.7 µM,
COC(=O)c1cn[nH]c1NC(=S)Nc1ccccc1C,active: 7.57 µM,
CCC(=O)N1CCc2cc(Br)cc(S(=O)(=O)N3CCCC(C(=O)NCc4cccc(OC)c4)C3)c21 (configuration not stated),,inactive: -9.84%
O=C(N/N=C/c1cc(Cl)ccc1O)c1ccccc1Br,"inconclusive: 23.9 µM [inhibitor, single point]",
C(=N\c1nc2ccccc2n1Cc1ccccc1)/c1cccs1,active: 13.5 µM,
CCN(CC)S(=O)(=O)c1ccc2c(c1)c(=O)c(C(=O)NCc1ccc(Cl)cc1)cn2C,,inactive: -0.952%
N#Cc1ccc2c(c1)C[C@]1(c3ccsc3)Oc3c(c(=O)oc4ccc(F)cc34)C2O1,"inconclusive: 3.47 µM [inhibitor, single point]",
O=c1cc(-c2ccc(F)cc2)[nH][nH]1,,inactive: -0.244%
Cc1cc(C)c(C(=O)/C=C/c2ccc(C(C)C)cc2)c(=O)[nH]1,"inconclusive: 13.5 µM [inhibitor, partial curve]",
